Test results: the supplement of paper PMC6531468
The list shows a part of the results. Values come from read counts of a selection and are noisy. Scores sum up all selected molecules that hold the word; the word was not tested alone.

Experiments:
Assay in all cases: 6-mer SELEX enrichment z-score vs GST control; IMP3 is the RNA-binding protein IGF2BP3; higher = more enriched by binding
IMP3 KH1-4 = settings: construct: KH1-4 (164-579); SELEX round: R4
Protocol: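 SELEX-seq with GST-tagged IMP3 KH1-4 (Pro164-Lys579) and an N40 RNA pool, round 4. 6-mer z-score of sequence-tag enrichment normalised to the corresponding GST SELEX round; RNA k-mers written as DNA (T for U).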

IMP3 RRM1-2 = settings: construct: RRM1-2 (1-163); SELEX round: R2
Sequence of IMP3 RRM1-2 (chain, as listed by the source): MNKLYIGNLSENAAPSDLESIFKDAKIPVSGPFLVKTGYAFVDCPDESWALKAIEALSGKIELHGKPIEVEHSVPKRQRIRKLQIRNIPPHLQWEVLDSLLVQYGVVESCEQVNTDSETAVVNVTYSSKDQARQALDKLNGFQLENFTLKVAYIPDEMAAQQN
Protocol: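 SELEX-seq with GST-tagged IMP3 RRM1-2 (Met1-Asn163) and an N40 RNA pool, round 2. 6-mer enrichment z-score normalised to GST SELEX. RNA written as DNA (T = U).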

IMP3 full-length = IMP3 full-length (UniProt O00425); settings: construct: FL IMP3 (1-579); SELEX round: R4
Sequence of UniProt O00425 (O00425 whole entry): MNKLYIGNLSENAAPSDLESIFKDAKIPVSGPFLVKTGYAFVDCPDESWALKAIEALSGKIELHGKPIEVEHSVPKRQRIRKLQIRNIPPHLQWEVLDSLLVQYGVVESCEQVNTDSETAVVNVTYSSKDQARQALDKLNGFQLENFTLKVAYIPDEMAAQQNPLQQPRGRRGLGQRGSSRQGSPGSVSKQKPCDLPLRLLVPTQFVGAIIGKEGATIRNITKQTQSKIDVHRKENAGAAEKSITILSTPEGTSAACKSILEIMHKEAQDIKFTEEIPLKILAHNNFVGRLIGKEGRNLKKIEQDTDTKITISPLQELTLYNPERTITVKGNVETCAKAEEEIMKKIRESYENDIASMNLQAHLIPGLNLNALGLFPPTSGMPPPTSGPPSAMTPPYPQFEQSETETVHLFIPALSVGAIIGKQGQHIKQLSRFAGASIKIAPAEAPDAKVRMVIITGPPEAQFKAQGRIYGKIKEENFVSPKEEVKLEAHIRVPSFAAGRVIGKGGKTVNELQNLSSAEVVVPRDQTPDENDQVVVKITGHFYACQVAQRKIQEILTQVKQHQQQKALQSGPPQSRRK
Protocol: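 SELEX-seq with GST-tagged full-length IMP3 and an N40 RNA pool, round 4. Each 6-mer is scored as an enrichment z-score of sequence tags containing it, normalised to the matching GST SELEX round. RNA written as DNA (T = U).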

IMP3 KH1-2 = settings: construct: KH1-2 (164-376); SELEX round: R4
Sequence of IMP3 KH1-2 (chain, as listed by the source): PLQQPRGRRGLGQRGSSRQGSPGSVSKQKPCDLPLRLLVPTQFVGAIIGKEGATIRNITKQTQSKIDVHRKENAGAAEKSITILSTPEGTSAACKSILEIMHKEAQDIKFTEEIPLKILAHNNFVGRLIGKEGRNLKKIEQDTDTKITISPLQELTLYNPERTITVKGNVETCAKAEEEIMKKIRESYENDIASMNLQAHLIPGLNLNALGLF
Protocol: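 SELEX-seq with GST-tagged IMP3 KH1-2 (Pro164-Phe376) and an N40 RNA pool, round 4 (stringent 300/600 mM KCl washes). 6-mer z-score of sequence-tag enrichment normalised to the corresponding GST SELEX round; RNA k-mers written as DNA (T for U).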

IMP3 KH3-4 = settings: construct: KH3-4 (377-579); SELEX round: R4
Sequence of IMP3 KH3-4 (chain, as listed by the source): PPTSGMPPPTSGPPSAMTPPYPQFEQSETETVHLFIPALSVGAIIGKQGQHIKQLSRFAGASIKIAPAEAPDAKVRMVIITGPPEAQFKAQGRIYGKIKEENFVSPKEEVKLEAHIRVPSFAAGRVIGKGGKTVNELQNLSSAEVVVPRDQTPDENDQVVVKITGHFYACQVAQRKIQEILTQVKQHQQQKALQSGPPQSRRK
Protocol: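 SELEX-seq with GST-tagged IMP3 KH3-4 (Pro377-Lys579) and an N40 RNA pool, round 4. 6-mer z-score of sequence-tag enrichment normalised to the corresponding GST SELEX round; RNA k-mers written as DNA (T for U).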

Sequence of IMP3 KH1-4 (chain, as listed by the source): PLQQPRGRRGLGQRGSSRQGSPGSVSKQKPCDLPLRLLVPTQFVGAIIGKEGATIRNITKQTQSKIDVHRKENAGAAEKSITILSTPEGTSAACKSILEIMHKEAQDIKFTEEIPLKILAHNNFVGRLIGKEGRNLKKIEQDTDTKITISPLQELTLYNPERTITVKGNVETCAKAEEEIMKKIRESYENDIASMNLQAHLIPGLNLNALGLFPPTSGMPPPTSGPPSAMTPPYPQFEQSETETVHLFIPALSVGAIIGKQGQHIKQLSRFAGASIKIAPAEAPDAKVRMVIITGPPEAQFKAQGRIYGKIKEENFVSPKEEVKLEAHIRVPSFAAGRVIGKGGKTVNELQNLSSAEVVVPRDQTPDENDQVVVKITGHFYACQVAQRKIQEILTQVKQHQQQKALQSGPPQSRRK

Sequence | 6-mer SELEX enrichment z-score (IMP3 KH1-4) | 6-mer SELEX enrichment z-score (IMP3 RRM1-2) | 6-mer SELEX enrichment z-score (IMP3 full-length) | 6-mer SELEX enrichment z-score (IMP3 KH1-2) | 6-mer SELEX enrichment z-score (IMP3 KH3-4)
TACTCG | -0.855 | 0.152 | -0.382 | -0.732 | -0.712
GTGTAT | -0.139 | 0.196 | -0.217 | -0.13 | 0.114
ATGGCC | 0.71 | -0.169 | 0.371 | 0.482 | 0.502
CCTGCT | -0.273 | -0.048 | -0.335 | -0.221 | -0.387
GAGCTC | -0.63 | 0.132 | 0.272 | -0.502 | -0.435
CCGGGA | -0.566 | -1.04 | -0.302 | -0.351 | -0.552
CTAGAG | -0.837 | -0.272 | -0.635 | -0.81 | -0.612
TACGAC | -0.022 | -0.681 | -0.409 | -0.261 | -0.673
AGGCGC | 0.057 | 0.351 | 0.886 | 0.104 | 0.097
TATTTC | 1.17 | 0.441 | 0.458 | 1.28 | 1.24
CGTAAC | -1.53 | -0.515 | -1.01 | -1.44 | -1.51
GGTGGT | 0.346 | 0.472 | 0.41 | 0.463 | 0.518
GCGTAC | -2.4 | -0.101 | -0.907 | -2.17 | -2.12
ATAACC | 0.049 | -0.888 | -0.74 | 0.292 | -0.112
TAAGAA | 0.661 | -1.16 | -0.773 | 0.426 | 1.65
GATAGC | -0.079 | -0.26 | -0.129 | -0.063 | 0.08
TTTGAG | -0.869 | 0.094 | -0.7 | -0.839 | -0.505
TTGAGC | -2.71 | -0.092 | -1.69 | -2.52 | -2.37
ACCTTC | -0.329 | 0.07 | -0.552 | -0.185 | -0.769
TTAGCA | 0.542 | 0.341 | 0.275 | 0.341 | 0.412
TTGCCT | -0.298 | 0.08 | -0.351 | -0.288 | -0.279
TTAACT | 0.819 | -0.034 | -0.229 | 0.855 | 1.24
GTCACC | -0.246 | 0.082 | 0.152 | -0.448 | -0.797
CATGTA | 0.882 | 0.395 | 0.635 | 0.557 | 0.734
CCCGGC | -0.448 | -0.162 | 0.639 | -0.426 | -0.789
GAGACG | -0.955 | -1.02 | -0.635 | -0.891 | -0.898
GTGCCG | -0.492 | -0.172 | 0.087 | -0.398 | -0.564
AGTAAC | -0.332 | -0.449 | -0.302 | -0.293 | -0.199

Sequence | 6-mer SELEX enrichment z-score (IMP3 KH1-4) | 6-mer SELEX enrichment z-score (IMP3 RRM1-2) | 6-mer SELEX enrichment z-score (IMP3 full-length) | 6-mer SELEX enrichment z-score (IMP3 KH1-2) | 6-mer SELEX enrichment z-score (IMP3 KH3-4)
CCCGTC | -0.771 | -0.067 | 0.081 | -0.589 | -1.02
AGTTGT | -0.171 | 0.197 | -0.242 | -0.235 | -0.069
AGCTAT | -0.191 | 0.058 | -0.15 | -0.159 | 0.031
ACGTGA | -0.173 | -0.972 | -0.606 | -0.444 | -0.254
GTTTAT | 0.417 | 0.292 | 0.114 | 0.399 | 0.722
AAAATC | -0.553 | -0.801 | -1.09 | -0.425 | -0.286
GGCGTA | -1.92 | 0.017 | -0.713 | -1.76 | -1.56
ATAGAC | 0.768 | -0.485 | 0.046 | 0.77 | 0.984
AGATTG | 0.364 | -0.429 | -0.182 | 0.262 | 0.681
GCACAA | 1.9 | 1.07 | 2.28 | 1.57 | 1.43
AATCGC | -0.104 | -0.402 | -0.301 | -0.191 | -0.337
AAAATA | 0.953 | -2.25 | -1.29 | 1.02 | 2.73
GGACGG | 0.703 | -0.541 | 0.687 | 0.657 | 0.445
AGGCAC | 1.88 | 0.883 | 2.59 | 1.18 | 1.73
TCAGCT | -0.008 | 0.594 | 0.562 | 0.081 | -0.036
CAGCCG | 0.001 | -0.159 | 0.64 | 0.042 | -0.467
GGGCAC | 0.787 | 0.396 | 1.67 | 0.866 | 0.819
TGACAT | 0.657 | 0.108 | 0.454 | 0.514 | 0.665
ACATTA | 2.28 | 1.52 | 1.69 | 2.28 | 2.68
CCGGTT | -0.186 | 0.054 | -0.069 | -0.185 | -0.132
AGGGCC | -0.418 | -0.018 | 0.221 | -0.126 | -0.218
AGGAGA | 1.44 | -0.789 | 0.195 | 1.17 | 1.37
TTAACC | -0.46 | -0.804 | -1.21 | -0.464 | -0.491
GCCGGT | -0.144 | 0 | 0.209 | -0.088 | -0.099
CAACTA | 0.73 | 0.253 | -0.099 | 0.779 | 0.576
ATGATC | 0.941 | -0.033 | 0.202 | 0.556 | 0.815
ATATAT | 2.19 | 0.373 | 0.722 | 2.05 | 3.08
